Target: human CD127 ECD (human) (UniProt P16871)
Assay: SPR, BIAcore 3000; antibody captured on anti-human IgG (Fc), CD127 ECD 16-512 nM as analyte, 1:1 Langmuir fit

B1: Biotin-labelled 1A11 H3L4 (antibody)
heavy: QVQLVQSGAEVKKPGASVKVSCKASGYTFTGYTMNWVRQAPGQGLEWMGLINPYNGVTSYNQKFKGRVTLTRDTSISTAYMELSRLRSDDTAVYYCARGDGNYWYFDVWGQGTTVTVSS[letters of human IgG1 constant region not shown]
light: EIVLTQSPATLSLSPGERATLSCSASSSVTYMHWYQQKPGQAPRPLIYEISKLASGIPARFSGSGSGTDFTLTISSLEPEDFAVYYCQEWNYPYTFGGGTKVEIKRTVAAPSVFIFPPSDEQLKSGTASVVCLLNNFYPREAKVQWKVDNALQSGNSQESVTEQDSKDSTYSLSSTLTLSKADYEKHKVYACEVTHQGLSSPVTKSFNRGEC
modifications: biotin-labelled (chain and sites not stated)
Kd: 2.67 nM | koff: 0.000452 s⁻¹ | kon: 169000 M⁻¹ s⁻¹

— patent US20110200585A1
